Source: PubChem BioAssay AID624417 (National Center for Advancing Translational Sciences (NCATS), 2012)
Among all 410,000 compounds or so, about 6,400 (1.6%) were called active. The shares of active, inactive and inconclusive entries below differ from those in the screen. The call rests on the fitted dose curve; in most records, active means well fitted inhibition curve with a large enough effect; inconclusive means small, poorly fitted or top-dose-only effect; inactive means no such curve, though single readings can be large or run the other way. No potency is given beside an inconclusive call; the fits are too rough.

target: Glucagon-like peptide 1 receptor (Homo sapiens) (UniProt P43220); test: qHTS of GLP-1 Receptor Inverse Agonists (Inhibition Mode); details: HEK293 GLP-1R CRE-luciferase, luminescence, 24 h, GLP-1R form is constitutively active; activity change, negative = inhibition: at 38.3 µM (top of the series) unless noted; further: nearly all actives have a fitted effect of over 55% in size
Summary of the method: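 HEK293 cells stably co-expressing a cAMP-responsive luciferase reporter and constitutively active GLP-1R were seeded, incubated 12 h, then exposed to compounds for 24 h at 37 C. Luminescence was read 12 min after detection reagent; inverse agonists lower signal.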
On the % scale 0 is the no-effect control and ±100 the full control effect; potency means the concentration at half of the fitted maximal effect; tags describe the fitted curve by direction and shape.

UniProt P43220, sequence (P43220 whole entry, looked up): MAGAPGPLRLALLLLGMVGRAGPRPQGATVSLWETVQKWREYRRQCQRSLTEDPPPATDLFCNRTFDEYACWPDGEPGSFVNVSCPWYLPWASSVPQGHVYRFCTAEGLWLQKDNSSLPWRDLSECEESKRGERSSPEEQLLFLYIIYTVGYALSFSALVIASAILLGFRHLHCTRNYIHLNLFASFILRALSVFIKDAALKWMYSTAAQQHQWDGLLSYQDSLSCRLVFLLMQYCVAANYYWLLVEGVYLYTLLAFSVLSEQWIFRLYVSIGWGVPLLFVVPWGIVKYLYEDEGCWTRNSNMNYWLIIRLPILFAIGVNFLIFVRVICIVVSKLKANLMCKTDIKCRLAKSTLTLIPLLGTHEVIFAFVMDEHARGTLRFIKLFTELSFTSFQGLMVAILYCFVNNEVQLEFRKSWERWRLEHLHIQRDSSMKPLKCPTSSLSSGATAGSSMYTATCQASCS

SMILES	activity change, negative = inhibition	Potency
Cc1ccc(NC(=O)CSc2nnc(COc3ccc(Cl)cc3)o2)c(C)c1	inactive: 5.26%	
Cc1cc(C)cc(NC(=O)CN2CCC(C(=O)c3ccccc3)CC2)c1		inconclusive [inhibitor, single point]
CC(CNCCCn1cnc2c(OCc3ccccc3)ncnc21)c1ccccc1 (stereo not given)		inconclusive [inhibitor, partial curve]
O=C(C[C@H]1C(=O)N(Cc2ccccc2)C[C@@H]1c1ccc(Br)cc1)Nc1ccc(Br)cc1		inconclusive [inhibitor, partial curve, poor fit]
Cc1ccc(NCc2cccn2-c2nnc(N3CCC(C(=O)NCc4ccc(F)cc4)CC3)s2)cc1		inconclusive [inhibitor, full curve]
Cc1cc(NC(=O)CSc2nnnn2-c2cc(Cl)ccc2C)no1		inconclusive [inhibitor, partial curve, poor fit]
COc1ccc(C(=O)C=Cc2cccs2)c(O)c1		inconclusive [inhibitor, single point]
O=C(Cn1cnnn1)Nc1cccc([N+](=O)[O-])c1	inactive: 11.6% [at 7.66 µM]	
O=C(C1CCCN(Cc2ccccc2Cl)C1)N1CCCCC1 (stereo not given)	inactive: -4.58%	
N#CC1=C(N)Oc2cc(N)ccc2C1c1cccc(Br)c1 (stereo not given)		inconclusive [inhibitor, full curve, poor fit]
Cc1ccc(S(=O)(=O)Nc2ccc(Nc3nccn4c(-c5ccc6ccccc6c5)cnc34)cc2)cc1		inconclusive [inhibitor, single point]
CC(NC(=O)COC(=O)c1ccccc1Nc1ccccc1)c1ccccc1 (stereo not given)		inconclusive [inhibitor, single point]
Cc1ccn2c(Nc3ccccc3C)c(-c3ccccc3)nc2c1		inconclusive [inhibitor, partial curve, poor fit]
O=C(Nc1ccc(F)cc1)C(CCc1ccccc1)N1CCN(c2cccc(C(F)(F)F)n2)CC1 (stereo not given)		inconclusive [inhibitor, partial curve, poor fit]
CCOc1ccccc1OCC(=O)Nc1ccc(Cl)cc1Cl	inactive: 12.5%	
C/C(=N\NC(=O)C1(C)CC1(Br)Br)c1ccc(NC(=O)c2ccc(C)o2)cc1 (stereo not given)		inconclusive [inhibitor, single point]
O=[N+]([O-])c1ccc2c(c1)-c1ccccc1C2O (stereo not given)	inactive: 28.6%	
CCCC(C)Sc1nc2c([nH]1)c(=S)n(C)c(=O)n2C (stereo not given)		inconclusive [inhibitor, full curve, poor fit]
CC(C)(O)C#Cc1ccc(CN2CCC(CO)(CCc3ccccc3)CC2)cc1		inconclusive [inhibitor, partial curve, poor fit]
COc1ccccc1NC(=O)CSc1nnnn1-c1ccccc1F		inconclusive [inhibitor, partial curve, poor fit]
COc1ccc(C(C(=O)Nc2ccc(F)cc2)N2CCN(C(=O)c3ccco3)CC2)cc1 (stereo not given)	inactive: 2.79%	
CN(C)S(=O)(=O)c1ccc(C(=O)Nc2ccc3c(c2)CCC3)cc1		inconclusive [inhibitor, single point]

SMILES	activity change, negative = inhibition	Potency
Cc1onc(-c2ccccc2)c1C(=O)N1CCN(c2ccccc2F)CC1		inconclusive [inhibitor, partial curve]
Cc1ccccc1Nc1c(-c2ccc(N3CCOCC3)cc2)nc2ccc(Cl)cn12		active: 10 µM
COCCN(C(=O)Cc1cccs1)C(C(=O)NCc1ccc(OC)cc1)c1ccc(C(C)C)cc1 (stereo not given)		inconclusive [inhibitor, single point]
CCN(CC(=O)NCc1ccc(Cl)cc1)S(=O)(=O)c1ccc(F)cc1	inconclusive: -31.4% [inhibitor]	
CC1=NN(C(=O)COc2cc(C)ccc2C(C)C)C(O)(c2ccccc2)C1 (stereo not given)		inconclusive [inhibitor, single point]
CCCCCCN1C[C@@H](O)[C@H](n2cc(C3CC3)nn2)C[C@@H]1c1ccccc1		inconclusive [inhibitor, single point]
C[C@H](NC(=O)c1nc[nH]c1C(=O)NCc1ccc(CNC(=O)OC(C)(C)C)cc1)C(=O)OC(C)(C)C		inconclusive [inhibitor, single point]
CC1=C(C(=O)N(C(C)C)C(C)C)CC(CC(=O)NCc2cccc3ccccc23)C(=O)N1Cc1ccc(F)cc1 (stereo not given)		inconclusive [inhibitor, single point]
CCc1cccc(C)c1NS(=O)(=O)c1ccc(-c2cc(C)no2)s1	inactive: -48%	
CC(C)NC(=O)c1c(CSc2ccccc2)noc1C(=O)NCc1ccccc1		inconclusive [inhibitor, partial curve, poor fit]
Cn1cc(C(=O)c2ccc(Cl)cc2Cl)cc1C(=O)N/N=C(\N)COc1ccc(Cl)cc1		inconclusive [inhibitor, partial curve, poor fit]
CCC(=O)N1Cc2cc(C(=O)Nc3nccs3)nc(-c3cccc(-c4ccccc4OC)c3)c2[C@@H]1CCO		inconclusive [inhibitor, partial curve]
CCN(c1cccc(C)c1)S(=O)(=O)c1cn(CC(=O)OC)c2ccc([N+](=O)[O-])cc12		inconclusive [inhibitor, single point]
CC(=O)c1cc(C#N)c(N(C)Cc2ccccc2)nc1C		inconclusive [inhibitor, full curve]
Cc1nc(CCNC(=O)CC2C(=O)NCCN2CC(C)(C)C)nc2c1CCC2 (stereo not given)	inactive: 6.36%	
NC1=NOC(=O)C1C1CCCCC1 (stereo not given)		inconclusive [inhibitor, partial curve, poor fit]
CCCCC(=O)NNC(=S)NCc1ccccc1		inconclusive [inhibitor, partial curve, poor fit]
COc1cc(C#Cc2ccc3cc(C(C)(C)O)oc(=O)c3c2)cc(OC)c1	inactive: 16%	
CCOc1ccc(-c2noc(CSc3nnc(Cc4ccccc4)n3-c3cccc(C)c3)n2)cc1		inconclusive [inhibitor, single point]
O=C(c1cccs1)N1C[C@H](n2cc(C3CC3)nn2)[C@@H](O)C[C@@H]1c1ccc(Cl)cc1		inconclusive [inhibitor, single point]
S=C(Nc1cc(Cl)cc(Cl)c1)NC1CCN(Cc2ccccc2)CC1		active: 3.98 µM
CC1CN(c2ccc([N+](=O)[O-])c(NCCOc3ccccc3)c2)CCN1 (stereo not given)		inconclusive [inhibitor, full curve, poor fit]

SMILES	activity change, negative = inhibition	Potency
Cc1cccc(/C=C2\CCC(=C3SCCCS3)C2=O)c1		inconclusive [inhibitor, full curve, poor fit]
CCOC(=O)N(C)c1c(CC)nc2c(OCCC3CCCCC3)cccn12		inconclusive [inhibitor, full curve, poor fit]
CCC(C)[C@H](NC(=O)Nc1ccc2c(c1)OCCO2)C(=O)OC (stereo not given in full)	inactive: 3.66%	
CC1CCN(C(=O)CCCN2C(=O)c3cccnc3Oc3ccc(Cl)cc32)CC1		inconclusive [inhibitor, partial curve, poor fit]
BrC(=C\c1ccccc1)/C=N/N1CCN(c2ccccn2)CC1	inactive: -7.56%	
Cc1ccc(Oc2ccc(C(=O)NCc3ccncc3)cc2)cc1		inconclusive [inhibitor, partial curve]
CCOC(=O)C1=C(N)n2c(s/c(=C/c3ccco3)c2=O)=C(C(=O)OC)C1c1ccco1 (stereo not given)	inactive: -0.591%	
CCOC(=O)c1cnc2ccc(C)cc2c1Nc1ccc(N2CCOCC2)cc1		inconclusive [inhibitor, single point]
CC(=O)N(CCC(Cc1ccccc1)c1ccco1)Cc1ccco1 (stereo not given)		inconclusive [inhibitor, single point]
Clc1cccc(N2CCN(Cc3nnc(-c4ccccc4)o3)CC2)c1		inconclusive [inhibitor, partial curve, poor fit]
CC(C)(C)C(=O)Cn1c(=O)n(-c2ccc(Cl)c(Cl)c2)c(=O)c2c3c(sc21)CCCC3	inactive: 2.28%	
O=C(OCC(=O)N1CCOCC1)c1ccc2ccccc2c1O	inactive: 3.97%	
O=C(COc1ccccc1)Nc1ccc2oc(=O)ccc2c1	inactive: 8.26%	
COc1ccc2c3c(n(C(=O)OC(C)(C)C)c2c1)C1CC=C(COC(C)=O)CN1CC3 (stereo not given)	inactive: 1.4%	
CCN(CCn1cccn1)Cc1nc(-c2ccc(OC)cc2)no1		inconclusive [inhibitor, full curve]
CCCN(C(=O)Cn1cc(S(=O)(=O)N2CCN(c3ccccc3F)CC2)c2ccccc2c1=O)c1cccc(C)c1		inconclusive [inhibitor, partial curve, poor fit]
CC1C(=O)N(Cc2ccccc2)c2ccccc2N1C(=O)c1ccccc1 (stereo not given)		inconclusive [inhibitor, partial curve, poor fit]
Brc1ccccc1C1=Nn2c(nnc2-c2ccccc2)SC1		inconclusive [inhibitor, single point]
O=C(C1CCN(Cc2cc(Cl)ccc2O)CC1)N1CCN(Cc2ccccc2)CC1		active: 7.08 µM
COc1cc(Cl)ccc1NC(=S)N(CCN(C)C)C(C)c1ccncc1 (stereo not given)		inconclusive [inhibitor, single point]
CCCCn1c(N)c(N(CCOC)C(=O)CCNC(=O)c2ccccc2Cl)c(=O)[nH]c1=O	inactive: -4.03%	
